# From PubChem BioAssay AID1347073 (National Center for Advancing Translational Sciences (NCATS), 2019)
# In all, about 45,000 compounds went through this assay and about 200 (0.44%) were called active. Not shown: some 7% with an inconclusive outcome. Calls come from the whole dose curve; as a rule, active = well fitted activation curve with a large enough effect; inconclusive = small, poorly fitted or top-dose-only effect; inactive = no such curve, though single readings can be large or run the other way. Some of the results follow.
# Test: qHTS of TDP-43 Inhibitors: NCGC Sytravon Library Screen; note: nearly all actives have a fitted effect of over 55% in size; for growth rescue (activation): 0% is about no effect
# Conditions: yeast TDP-43 toxicity rescue, BacTiter-Glo growth, 24 h; series mostly up to 46.1 µM; growth rescue (activation): at the top concentration
# In short: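 TDP-43-expressing yeast, pregrown in raffinose, seeded at OD600 0.02 in galactose medium with compound for 24 hr at 30 deg C. Growth read by BacTiter-Glo luminescence, so rescue of toxicity appears as activation.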
# Potency is the fitted concentration of half-maximal effect.
SMILES,growth rescue (activation),Potency
CS(=O)(=O)c1ccccc1C(=O)NC1CCCc2ccccc21 (centres undefined),inactive: 20.6%,
CN1c2ccccc2C(C)(C)C12C=Nc1c(cc(N3CCOCC3)c3ccccc13)O2 (centres undefined),inactive: 5.07%,
COc1ccc(C(=S)N2CCOCC2)cc1OC(=O)c1ccc([N+](=O)[O-])cc1,inactive: 21.6%,
COc1ccc(-c2cc3nc(C)c(CCC(=O)N4CCN(c5ccccn5)CC4)c(C)n3n2)c(OC)c1,inactive: -19.1%,
COc1ccc(/C=C/C(=O)O)cc1Cl,,active: 11.2 µM
Cc1cc(C)c(N(CC(=O)NC(C)(C)C)C(=O)CNC(=O)c2cccs2)c(C)c1,inactive: -5.18%,
COc1ccc(/C=C/C(=O)Nc2ccc(-c3nnc4n3CCCCC4)cc2)c(OC)c1,inactive: -0.949%,
CCCCc1c(O)nc(SCC(=O)N2CCCCCC2)[nH]c1=O,inactive: -9.75%,
CNc1oc(-c2cccc3ccccc23)nc1C#N,inactive: 2.05%,
Cn1c(=O)c(C(=O)CN2CCCCC2)c(N)n(Cc2ccccc2)c1=O,inactive: 2.83%,
COC(=O)Nc1ccc(S(=O)(=O)N2CCC(C(=O)N3CCCC(C)C3)CC2)cc1 (centres undefined),inactive: 6.84%,
Cc1nc(C(F)(F)F)ccc1C(=O)N1CCC1(C)C(=O)Nc1ccc2c(c1)OCO2 (centres undefined),inactive: 1.21%,
O=C(Cn1cnc([N+](=O)[O-])n1)NCCc1ccccc1,inactive: -6.78%,
O=C(CCc1nc2ccccc2c(=O)[nH]1)NCc1ccccn1,inactive: -5%,
O=C(Nc1ccc2nc3n(c(=O)c2c1)CCCCC3)c1c(F)ccc([N+](=O)[O-])c1F,inactive: -17%,
O=C(CSc1nnc(COc2ccccc2)o1)N1CCCC1,inactive: 13.4%,
NC(Cc1ccccc1)c1csc(Nc2ccc(C(=O)c3ccccc3)cc2)n1 (centres undefined),inactive: 7.33%,
COc1ccc(CCC(=O)NNC(=O)c2cc(Cl)ccc2OC)cc1,inactive: 30.3%,
CC(C)CN(C(=O)CCNC(=O)c1ccc([N+](=O)[O-])cc1)C1CCS(=O)(=O)C1 (centres undefined),inactive: 3.78%,
CCCn1nc(C(=O)OCn2nnc3ccccc3c2=O)c2ccccc2c1=O,inactive: 7.17%,
CN(C)CCC#CC(O)(c1ccccc1)c1ccccc1,inactive: -8.47%,
Cc1[nH]c(=O)nc(SCc2cccc(Cl)c2)c1C#N,inactive: 12.5%,
Cc1c(NC(=O)CSCc2c(F)cccc2Cl)c(=O)n(-c2ccccc2)n1C,inactive: 12.4%,
COc1cc(CCC(=O)NCc2ccc3c(c2)OCO3)cc(OC)c1OC,inactive: 6.2%,
Cc1ccc2nc(Cl)c(/C=N/NC(=O)CN3CCOCC3)cc2c1,inactive: 15.6%,
O=C(CSc1nc(-c2ccccc2)cs1)Nc1ccccc1[N+](=O)[O-],inactive: 30.8%,
N=c1sccn1CC(=O)Nc1ccc(Cl)cc1[N+](=O)[O-],inactive: -5.28%,
C=C(C)Cn1c(N)cc(=O)nc1SCC(=O)Nc1cccc(C(F)(F)F)c1,inactive: -0.76%,
O=C(COC(=O)CCC(=O)c1cccs1)NCCc1ccccc1,inactive: 13.3%,
